# Assay results from PubChem BioAssay AID1468 (National Center for Advancing Translational Sciences (NCATS), 2008).
# Screen size: about 280,000 compounds; about 1,100 (0.39%) were called active. Inconclusive results, whose numbers are uncertain, are shown with a selection of clear calls. The call rests on the fitted dose curve; in most records, active means well fitted inhibition curve with a large enough effect; inconclusive means small, poorly fitted or top-dose-only effect, or effect the other way; inactive means flat fitted curve, though single readings scatter. No potency is given beside an inconclusive call; the fits are too rough.
# Target: Microtubule-associated protein tau (Homo sapiens) (UniProt P10636)
# Chain of UniProt P10636 (P10636 whole entry, looked up): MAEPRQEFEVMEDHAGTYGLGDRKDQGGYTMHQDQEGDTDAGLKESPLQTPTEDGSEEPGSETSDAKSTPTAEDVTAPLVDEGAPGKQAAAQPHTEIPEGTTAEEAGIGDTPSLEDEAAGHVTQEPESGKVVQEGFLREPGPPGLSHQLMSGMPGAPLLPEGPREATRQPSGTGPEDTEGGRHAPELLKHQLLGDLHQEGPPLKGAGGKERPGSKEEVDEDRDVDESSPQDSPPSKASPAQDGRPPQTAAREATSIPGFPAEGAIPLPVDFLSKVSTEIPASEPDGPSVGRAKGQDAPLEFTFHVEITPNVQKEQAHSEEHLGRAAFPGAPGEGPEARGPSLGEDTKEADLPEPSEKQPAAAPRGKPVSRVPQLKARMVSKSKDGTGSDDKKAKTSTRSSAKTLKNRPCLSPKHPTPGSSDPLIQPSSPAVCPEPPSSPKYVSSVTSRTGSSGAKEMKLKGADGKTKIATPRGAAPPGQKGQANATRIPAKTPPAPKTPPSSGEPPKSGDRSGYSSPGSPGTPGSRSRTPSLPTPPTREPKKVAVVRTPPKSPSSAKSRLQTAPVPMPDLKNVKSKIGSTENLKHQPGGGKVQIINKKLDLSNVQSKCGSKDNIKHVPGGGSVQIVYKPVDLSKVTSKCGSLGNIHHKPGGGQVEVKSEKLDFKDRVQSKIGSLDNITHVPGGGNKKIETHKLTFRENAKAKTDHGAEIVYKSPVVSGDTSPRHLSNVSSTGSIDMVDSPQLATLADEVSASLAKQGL
# Assay: qHTS for Inhibitors of Tau Fibril Formation, Fluorescence Polarization; further: nearly all actives have a fitted effect of over 55% in size
# Conditions: K18 P301L tau heparin fibrillization, Alexa594 FP, 6 h; series mostly up to 57.7 µM; activity, negative = inhibition: at the top concentration
# How it was run: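 Steps: dispense K18 P301L tau (15 uM plus 0.24 uM Alexa 594 tracer, final) in pH 7 sodium acetate; add compound; add heparin (20 uM final); incubate 6 hr, 37 C; add ThT (30 uM final); after 1 hr ambient, read FP.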
# On the % scale 0 is the no-effect control and ±100 the full control effect; potency means the concentration at half of the fitted maximal effect; tags describe the fitted curve by direction and shape.
Compound,"activity, negative = inhibition",Potency
O=C(/C=C/c1ccc(-c2ccccc2[N+](=O)[O-])o1)c1ccco1,inactive: 8.93%,
CCCn1c2ccccc2c2cnn(CC(=O)NCCc3ccc(OC)cc3OC)c(=O)c21,inactive: -4.42%,
CCOC(=O)c1ccc(NC(=O)c2nc[nH]c2C(=O)N2CCC(C)CC2)cc1,inactive: -0.726%,
Cc1cccc2sc(NC(=O)C3CCCO3)nc12 (stereo not drawn),inactive: 3.08%,
N#Cc1ccccc1Cn1cc(C#N)c2ccccc21,,"inconclusive [inhibitor, single point]"
COc1ccc(-n2c(=O)c3ccc(C(=O)NCc4ccc(C)cc4)cc3n(CC(=O)Nc3ccc(F)cc3)c2=O)cc1,,"inconclusive [inhibitor, partial curve]"
CCOC(=O)c1sc(NC(=O)CSC(=S)N2CCN(C)CC2)nc1C,inactive: -2.45%,
Cc1ccc(NC(=O)c2oc3ccccc3c2NC(=O)c2cc3ccccc3o2)cc1,,"inconclusive [inhibitor, partial curve]"
COc1ccccc1Nc1nc(C2(C)CCC(=O)O2)cs1 (stereo not drawn),inactive: -0.0138%,
O=C(CSc1cn(CCNC(=O)c2c(F)cccc2F)c2ccccc12)Nc1ccc2c(c1)OCCO2,,"inconclusive [inhibitor, single point]"
CCOc1ccccc1NC(=O)Cn1cnc2onc(-c3ccc(F)cc3)c2c1=O,,"inconclusive [inhibitor, partial curve]"
O=C(Nc1ccc(Cl)cc1)Nc1nnc(/C=C/c2ccccc2)s1,,"inconclusive [inhibitor, partial curve]"
Cc1cc(=O)[nH]c(SCC(=O)/C=C2\N(C)c3ccccc3C2(C)C)n1,,"inconclusive [activator, single point]"
O=C(CCNS(=O)(=O)c1cccc2nonc12)NCc1cccs1,inactive: 4.68%,
CCOC(=O)/C(=N\Nc1ccc(OC)cc1)c1csc(Nc2ccccc2)n1,,"inconclusive [inhibitor, single point]"
Nc1ccccc1SC(C[N+](=O)[O-])c1ccccc1 (stereo not drawn),,"inconclusive [inhibitor, partial curve]"
Cn1nc(-c2ccc(Cl)cc2)c2cc(C(=O)NC3CC3)sc21,,"inconclusive [inhibitor, single point]"
CCC1CCc2nc3sc(C(=O)Nc4ccc(F)cc4F)c(N)c3cc2C1 (stereo not drawn),inactive: 6.71%,
O=C(/C=C/c1ccccc1)NC(NC(=S)Nc1ccc(Cl)cc1)C(Cl)(Cl)Cl (stereo not drawn),,"inconclusive [inhibitor, partial curve]"
Cc1c(-c2nc(N)nc(Nc3ccccc3)n2)oc2ccccc12,,"inconclusive [inhibitor, partial curve]"
COc1cccc(C(=O)Nc2cc(-c3ccccc3)no2)c1,,"inconclusive [inhibitor, partial curve]"
COc1ccc(/C=C/c2nc(C#N)c(NCCc3ccc(OC)c(OC)c3)o2)cc1OC,inactive: 1.51%,

Compound,"activity, negative = inhibition",Potency
Cc1cc(C)c(OCC(=O)Nc2cccc(NC(=O)c3ccco3)c2)c(Br)c1,,"inconclusive [inhibitor, single point]"
CCOc1ccc(NS(=O)(=O)c2cc(Br)cc3c2N(C(=O)C2CC2)CC3)cc1,,"inconclusive [inhibitor, full curve]"
C[n+]1ccc(/C=C/c2ccccc2O)c2ccccc21,inactive: -4.52%,
CCOC(=O)N(NC(=O)C(O)(CC(C)C)CC(C)C)c1ccccc1,,"inconclusive [inhibitor, single point]"
O=C1CC(SC(=Nc2ccccc2)Nc2ccccc2)C(=O)N1c1ccc(Cl)c(Cl)c1 (stereo not drawn),,active: 7.94 µM
CC(=O)Nc1ccc(NC(=O)CCNS(=O)(=O)c2cccc3nsnc23)cc1,,inactive
O=C(O)C(NS(=O)(=O)c1cccc2nsnc12)c1ccccc1 (stereo not drawn),,"inconclusive [inhibitor, full curve, poor fit]"
Cc1ccccc1CNC(=O)Cn1ncn2nc(-c3cccs3)cc2c1=O,inactive: -2.74%,
O=C1C=C(N2CCN(C3=CC(=O)CCC3)CC2)CCC1,,"inconclusive [inhibitor, single point]"
O=S(=O)(c1ccccc1)n1nc(-c2ccccc2)nc1NCc1ccc(Cl)cc1,,"inconclusive [inhibitor, partial curve]"
O=C(COc1ccc(S(=O)(=O)NC2CCCCC2)cc1)Nc1ccc(C(F)(F)F)cc1,,"inconclusive [inhibitor, partial curve]"
O=C(/C=C/c1ccc(Br)cc1)c1ccco1,,"inconclusive [activator, partial curve, poor fit]"
CCOc1cc(NC(=S)NCC2CCCO2)c(OCC)cc1NC(=O)c1ccc(F)cc1 (stereo not drawn),,"inconclusive [inhibitor, single point]"
O=C(COC(=O)CCCC1=NS(=O)(=O)c2ccccc2N1)Nc1ccc(Br)cc1,,"inconclusive [inhibitor, single point]"
COc1ccc2nc(SCC(=O)c3c(C)[nH]c4ccccc34)nc(C)c2c1,,"inconclusive [inhibitor, partial curve]"
C=CCn1c(C)cc(C(=O)COc2nncc3ccccc23)c1C,,"inconclusive [inhibitor, single point]"
CCc1ccc(NC(=O)C2CCN(C(=O)N3CC(CC)Oc4ccccc43)CC2)cc1 (stereo not drawn),,"inconclusive [activator, partial curve, poor fit]"
O=C1c2ccccc2C2=Nc3ccccc3SC(c3ccc(Cl)cc3)C12 (stereo not drawn),inactive: -16.7%,
CO/N=C(\C(=O)N[C@@H]1C(=O)N2C(C(=O)O)=C(COC(C)=O)CS[C@H]12)c1csc(N)n1 (stereo in doubt),,"inconclusive [inhibitor, partial curve, poor fit]"
COc1cc(Br)c(/C=C(\C#N)c2nc3ccccc3[nH]2)cc1OC,,"inconclusive [inhibitor, partial curve]"
CC1CN(c2oc(-c3cccs3)nc2C#N)CC(C)O1 (stereo not drawn),,"inconclusive [inhibitor, single point]"
